From a collection of fitness landscapes (doi:10.1126/science.1257360)
The list shows a part of the results.

B1: PhoQ; a variant is named by its letters at X, in order, P23837 (parent)
chain: MKKLLRLFFPLSLRVRFLLATAAVVLVLSLAYGMVALIGYSVSFDKTTFRLLRGESNLFYTLAKWENNKLHVELPENIDKQSPTMTLIYDENGQLLWAQRDVPWLMKMIQPDWLKSNGFHEIEADVNDTSLLLSGDHSIQQQLQEVREDDDDAEMTHSVAVNVYPATSRMPKLTIVVVDTIPVELKSSYMVWSWFIYVLSANLLLVIPLLWVAAWWSLRPIEALAKEVRELEEHNRELLNPATTRELTSLVRNLNRLLKSERERYDKYRTTLTDLTHSLKTPLXXLQXXLRSLRSEKMSVSDAEPVMLEQISRISQQIGYYLHRASMRGGTLLSRELHPVAPLLDNLTSALNKVYQRKGVNISLDISPEISFVGEQNDFVEVMGNVLDNACKYCLEFVEISARQTDEHLYIVVEDDGPGIPLSKREVIFDRGQRVDTLRPGQGVGLAVAREITEQYEGKIVAGESMLGGARMEVIFGRQHSAPKDE

Variants of: B1
Experiment: enrichment ratio after two sorts for PhoP signalling (ratio (wild type AVST 3.29)); higher = more functional
Conditions: with PhoP (E. coli)

Row | Variant | enrichment ratio
1 | YGCL | 2.74
2 | KVLA | ≤ 0.25
3 | SPAE | ≤ 0.25
4 | DDAD | ≤ 0.25
5 | NIED | ≤ 0.25
6 | DTCS | ≤ 0.25
7 | VCFT | ≤ 0.25
8 | GFKY | ≤ 0.25
9 | DWMR | ≤ 0.25
10 | LTQY | ≤ 0.25
11 | MQML | ≤ 0.25
12 | KTGQ | ≤ 0.25
13 | DAGT | ≤ 0.25
14 | WRDV | ≤ 0.25
15 | AILP | ≤ 0.25
16 | PICN | ≤ 0.25
17 | MEKI | ≤ 0.25
18 | WLYI | ≤ 0.25
19 | DHRW | ≤ 0.25
20 | RKIF | ≤ 0.25
21 | DISS | ≤ 0.25
22 | WTKA | ≤ 0.25
23 | TYDG | ≤ 0.25
24 | GTIN | ≤ 0.25
25 | NEPT | ≤ 0.25
26 | TDSA | 5.99

Row | Variant | enrichment ratio
27 | RYMV | ≤ 0.25
28 | QLMS | ≤ 0.25
29 | KMDN | ≤ 0.25
30 | KIKD | ≤ 0.25
31 | HGHL | ≤ 0.25
32 | SRAT | ≤ 0.25
33 | GACH | ≤ 0.25
34 | TRDD | ≤ 0.25
35 | VFLV | ≤ 0.25
36 | CWMT | ≤ 0.25
37 | TLTI | 10.7
38 | RFMR | ≤ 0.25
39 | AMSW | 0.458
40 | FIVT | ≤ 0.25
41 | FNCL | ≤ 0.25
42 | KMNH | ≤ 0.25
43 | RSFA | ≤ 0.25
44 | MFSE | ≤ 0.25
45 | ANTA | 19.3
46 | MLCS | 0.26
47 | TWTS | ≤ 0.25
48 | RGIY | ≤ 0.25
49 | LVSL | ≤ 0.25
50 | PSQW | ≤ 0.25
51 | HKQG | ≤ 0.25
52 | MNVG | ≤ 0.25

Row | Variant | enrichment ratio
53 | QNHG | ≤ 0.25
54 | TYAN | ≤ 0.25
55 | EQNK | ≤ 0.25
56 | QAEF | ≤ 0.25
57 | RFYA | ≤ 0.25
58 | ATMS | 6.27
59 | PKLK | ≤ 0.25
60 | PFES | ≤ 0.25
61 | GRCF | ≤ 0.25
62 | PPDK | ≤ 0.25
63 | YKRH | ≤ 0.25
64 | MTHL | 7.87
65 | YDQA | ≤ 0.25
66 | LFQR | ≤ 0.25
67 | LYMH | ≤ 0.25
68 | QIFY | ≤ 0.25
69 | KHKD | ≤ 0.25
70 | PVPC | ≤ 0.25
71 | WSMR | ≤ 0.25
72 | AFQV | ≤ 0.25
73 | GLRC | ≤ 0.25
74 | EGLR | 0.729
75 | WYPC | ≤ 0.25
76 | GETS | 1.4
77 | RWNF | ≤ 0.25
